The supplement of paper PMC3334620
Over roughly 33,000 sequences, “E-score (-0.5 to 0.5)” has its median near -0.021; the highest 2% begin near 0.32. The list shows a part of the results.

What follows are sequences tested against T1, Zap1 (UniProt P47043) (assay: PBM E-score (8-mer binding enrichment) (E-score (-0.5 to 0.5)); higher = stronger / more preferred TF binding; most listed sequences are background and not binding sites). Conditions: protein concentration: 200 nM; construct: GST-full length.
T1 sequence: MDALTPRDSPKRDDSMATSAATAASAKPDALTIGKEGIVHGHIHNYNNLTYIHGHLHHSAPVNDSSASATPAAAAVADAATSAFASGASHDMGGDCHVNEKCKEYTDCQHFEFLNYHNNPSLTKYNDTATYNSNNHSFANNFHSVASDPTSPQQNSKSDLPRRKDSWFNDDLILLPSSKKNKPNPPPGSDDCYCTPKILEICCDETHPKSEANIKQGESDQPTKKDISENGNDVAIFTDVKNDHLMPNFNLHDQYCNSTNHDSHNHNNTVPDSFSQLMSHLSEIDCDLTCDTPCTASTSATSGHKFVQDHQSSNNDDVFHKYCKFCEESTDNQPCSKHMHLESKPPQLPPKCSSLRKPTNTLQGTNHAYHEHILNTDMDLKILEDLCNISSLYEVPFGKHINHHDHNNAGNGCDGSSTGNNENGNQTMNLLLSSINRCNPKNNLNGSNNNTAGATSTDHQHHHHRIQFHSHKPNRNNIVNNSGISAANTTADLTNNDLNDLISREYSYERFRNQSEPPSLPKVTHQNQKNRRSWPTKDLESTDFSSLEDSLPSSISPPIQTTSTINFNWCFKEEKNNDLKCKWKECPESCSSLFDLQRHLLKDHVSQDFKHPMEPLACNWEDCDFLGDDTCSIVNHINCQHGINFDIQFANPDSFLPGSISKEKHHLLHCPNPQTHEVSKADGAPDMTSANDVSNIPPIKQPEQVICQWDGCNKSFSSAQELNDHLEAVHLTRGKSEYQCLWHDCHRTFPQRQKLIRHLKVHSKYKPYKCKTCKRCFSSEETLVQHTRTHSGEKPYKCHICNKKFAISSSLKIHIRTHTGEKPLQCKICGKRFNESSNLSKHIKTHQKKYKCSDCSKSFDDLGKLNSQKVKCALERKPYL
In short: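 Bound GST-tagged yeast transcription factors, applied at about 100-200 nM to double-stranded universal all-10-mer Agilent arrays, were detected with fluorescent anti-GST. Scans were normalised with masliner. A modified Wilcoxon-Mann-Whitney statistic, the E-score, was assigned to each ungapped eight-base word pooled with its reverse complement by the Universal PBM Analysis Suite.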

| Sequence | PBM E-score |
| --- | --- |
| GCAGGCGC | -0.239 |
| ATTCGAAC | -0.00606 |
| GCGCACGC | -0.14 |
| ACTTACGC | -0.0874 |
| CGCCCCCG | -0.269 |
| TGGATGAA | -0.119 |
| GACTCTGA | -0.0392 |
| GTCGGGGA | 0.0139 |
| AAGGCCCC | 0.069 |
| GTCTTATA | -0.0765 |
| ACAGGGCA | -0.0556 |
| AGCACTCC | -0.119 |
| CACCTGTC | 0.0585 |
| GGTATTCA | 0.0895 |
| CAGATAAG | 0.0633 |
| CTGGAACA | 0.0758 |
| GTCCCGCA | -0.14 |
| GCGCTGCA | -0.13 |
| CCCGCTGC | -0.104 |
| CGCGCTGC | -0.21 |
| AGTTGATA | 0.0143 |
| AGTCACTC | -0.161 |
| CTGAACAG | -0.0749 |
| GACTCACA | -0.0129 |
| ACGCGAAA | -0.0414 |

| Sequence | PBM E-score |
| --- | --- |
| CTCGATCA | 0.0468 |
| ATCTAGTC | -0.104 |
| AAACTTAC | -0.116 |
| AAAACTGT | 0.107 |
| CGTTATGA | 0.0413 |
| AGCTAAAC | -0.144 |
| CGTCCTCC | -0.101 |
| CTGACGAA | 0.0738 |
| AGAGTCGA | -0.12 |
| CCCCACCA | 0.119 |
| ATGGGATC | -0.0299 |
| GCACTGCA | -0.186 |
| GACGCTAA | -0.184 |
| AGCAAACC | 0.166 |
| ACGGTCCC | -0.234 |
| CGGTCACG | 0.203 |
| GCCGGCTA | -0.189 |
| CAGATCGC | -0.0173 |
| AGCGGGAG | -0.105 |
| GGGTCACC | 0.438 |
| ATATCCCC | -0.127 |
| AGGGCTAC | -0.0664 |
| ATGGGTCC | 0.263 |
| AGCAGCTC | -0.29 |
| CTTGGTCA | 0.194 |

| Sequence | PBM E-score |
| --- | --- |
| GCACGCTA | -0.223 |
| CGCTCATC | -0.094 |
| GCGGAAGA | -0.0868 |
| ATTAGGTG | -0.0772 |
| ACAGCTAA | -0.174 |
| ATCATACA | 0.183 |
| GAAAAGCC | -0.211 |
| GAACAAGC | -0.175 |
| ATCATTAG | 0.0336 |
| ACCTGGTA | 0.0815 |
| TATGGGCA | 0.184 |
| CGCGTGTC | -0.0401 |
| TGTTTAAA | 0.147 |
| GCGGCCCC | 0.0223 |
| ATCTGGAC | -0.182 |
| AGGTCAGG | 0.141 |
| GGATTTCA | 0.0789 |
| ATTTTAGC | 0.0543 |
| CGCTGTCC | -0.122 |
| CAAAAGTG | 0.0344 |
| GAGACTCC | -0.223 |
| AGGAGAGA | -0.0256 |
| GTCAAGTA | -0.144 |
| GTCCACTA | 0.117 |
| AGTAAAAG | 0.217 |

| Sequence | PBM E-score |
| --- | --- |
| AAAGAGTG | -0.208 |
| CACTGCGC | -0.192 |
| CGAAAGTC | -0.0323 |
| AACCCAGG | 0.26 |
| AGTCGGTA | -0.163 |
| ATTGCGAA | -0.0714 |
| ATCATGCC | -0.14 |
| TGGAAGAA | 0.0914 |
| ACTCTACC | 0.11 |
| GGTGGTAA | 0.274 |
| ATAATTAG | 0.0731 |
| TCCCATCA | -0.23 |
| AAAGCGTC | -0.107 |
| ACCATGTG | 0.1 |
| GTACAAAC | 0.247 |
| GCGTGGAA | -0.174 |
| GGCATGTA | -0.0887 |
| TATGGTAA | 0.231 |
| GTAAGAAA | -0.00388 |
| CATCCACC | -0.112 |
| CCAGACCG | 0.0696 |
| GTGAGTCA | -0.0169 |
| ATTAGTGA | 0.173 |
| CATAACCA | 0.462 |
| AGCATTGG | -0.237 |

| Sequence | PBM E-score |
| --- | --- |
| AGCCTCGC | -0.174 |
| AACGAGTC | -0.229 |
| AGCCCGGC | -0.201 |
| AAAGTACT | 0.193 |
| CCCACAGC | 0.00743 |
| AACTCGGT | 0.128 |
| AATGAAAT | 0.149 |
| TCTCTGAA | -0.0746 |
| AGTATCCC | -0.113 |
| AACATTGT | -0.0906 |
| GCTCTACC | -0.256 |
| AAAAAGAA | 0.0584 |
| ACATGATG | -0.206 |
| AATTACGG | 0.24 |
| ATAGAATC | -0.0515 |
| GTTTTTAA | 0.219 |
| AACCCATA | 0.391 |
| AGCTCAAC | -0.097 |
| AGTGACTG | -0.0452 |
| ACCCCTCG | 0.347 |
| GCTCCACC | -0.264 |
| ATCGCCGG | -0.142 |
| ACCGTCGG | -0.0624 |
| CAGTTATC | 0.0632 |
| AGTGCTGC | -0.265 |

| Sequence | PBM E-score |
| --- | --- |
| AAAATCTA | 0.0234 |
| CTATGAGA | -0.141 |
| AAACTCTA | 0.0237 |
| CAGGTTAA | 0.325 |
| ACGAGAGA | -0.125 |
| AGCTACAA | -0.145 |
| ATGATGGC | -0.209 |
| CGATCCCC | -0.179 |
| AGCGGCCA | -0.137 |
| AAATCACA | -0.0161 |
| AAAATAGA | 0.133 |
| ATTCAGTC | -0.0768 |
| GATGCTAC | -0.227 |
| CCCGTGCC | -0.317 |
| TAGTACGA | 0.00069 |
| TATAGTAA | 0.123 |
| CCCCCCTC | -0.435 |
| CGAGTCGC | -0.283 |
| AAGCGCAT | -0.0853 |
| GACAACAC | -0.0164 |
| ACCAATTA | 0.249 |
| ACACTACA | 0.0886 |
| TCCCGCAA | 0.0843 |
| CGTGACGA | 0.0724 |
| GATCACGC | -0.00269 |

| Sequence | PBM E-score |
| --- | --- |
| ACGGAGGC | -0.257 |
| GGAGTTGA | -0.194 |
| TATTACCA | 0.194 |
| CCAGTAGG | -0.122 |
| CTCCTAGC | -0.307 |
| ACGAATAG | -0.0113 |
| ACTCTCCG | -0.13 |
| ACCCACTG | 0.0823 |
| CAGTACCC | 0.313 |
| ACCTAAAA | 0.296 |
| GGCGTTCA | 0.00932 |
| GCGGTAGA | -0.114 |
| CGCATACA | 0.0301 |
| TATACAGA | 0.0972 |
| ACTCTTAT | 0.119 |
| CGCGTCTC | -0.0996 |
| TCAGGACA | 0.0863 |
| CATCGCAC | -0.0948 |
| GACCGTTA | 0.2 |
| GCGGAATA | -0.108 |
| GCATGAAC | -0.0216 |
| CGGCGTTC | -0.194 |
| ATTGATAA | 0.109 |
| CCTAGTAG | -0.209 |
| CCCGACGA | 0.117 |

| Sequence | PBM E-score |
| --- | --- |
| CCTGGTAA | -0.0454 |
| GTCCCGGA | -0.217 |
| CAAGACGG | -0.0425 |
| ACCGAATA | 0.209 |
| ACCATCGT | -0.0674 |
| CAGATGGG | -0.0879 |
| AGCACAAA | 0.179 |
| GAGTTTTA | 0.0362 |
| CACCATGC | -0.194 |
| ACACATAA | 0.107 |
| CCCCTTAA | -0.0744 |
| TCTCGGCA | -0.0878 |
| TCACGCGA | -0.048 |
| AACGGGAG | -0.0406 |
| GCACGCAC | -0.263 |
| GCGGGACC | -0.0776 |
| GAGCTTTA | -0.156 |
| TAGACGGA | -0.106 |
| AAGCTGCT | -0.176 |
| ACACGTAG | -0.116 |
| ACCTCACT | 0.106 |
| CCTCGAGA | 0.192 |
| GAGGCTTA | -0.23 |
| CGCAGTCC | -0.0786 |
| CTTCCAAC | -0.00474 |

| Sequence | PBM E-score |
| --- | --- |
| CGGTAGGC | -0.0205 |
| GTGGCTTA | -0.127 |
| CGTAGCAA | -0.142 |
| AGGGGAGA | -0.226 |
| AGTGTACA | -0.0381 |
| TTTTAAAA | 0.227 |
| CACGTACG | -0.19 |
| AGACGGTC | -0.0807 |
| TGAGAGAA | -0.0708 |
| CAACTCGC | 0.0406 |
| CCCTCTAA | 0.0729 |
| GTCACAGA | 0.105 |
| ATAGCGAA | 0.0489 |
| CGTCCGTA | 0.0251 |
| ACCTAGAT | 0.0925 |
| CAACAATC | 0.107 |
| CTTGTCCA | -0.141 |
| TAGGCCGA | -0.131 |
| CTTATTTA | 0.0152 |
